Assay results taken from paper PMC10897228.
These are yes or no findings as the source states them, for the method shown. Some binding calls cover weakened binding; strength is not graded here.

The chains behind the UniProt entries cited, without tags or fusion partners. Where a name states a change or a piece, a line headed by the entry shows the natural chain unless it says otherwise. A line that says so, or that is headed by a name, gives the form on record, which may keep a tag or linker.
UniProt Q8VED8: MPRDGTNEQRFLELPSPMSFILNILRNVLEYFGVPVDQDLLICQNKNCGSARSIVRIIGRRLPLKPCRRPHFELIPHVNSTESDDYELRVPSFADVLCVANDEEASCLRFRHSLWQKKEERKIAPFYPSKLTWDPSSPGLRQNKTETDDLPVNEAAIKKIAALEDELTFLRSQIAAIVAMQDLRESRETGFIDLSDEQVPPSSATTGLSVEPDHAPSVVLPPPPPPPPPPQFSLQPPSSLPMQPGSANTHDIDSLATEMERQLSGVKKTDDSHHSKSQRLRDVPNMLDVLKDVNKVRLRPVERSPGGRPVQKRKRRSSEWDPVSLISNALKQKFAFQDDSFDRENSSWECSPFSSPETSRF
UniProt Q99MB2: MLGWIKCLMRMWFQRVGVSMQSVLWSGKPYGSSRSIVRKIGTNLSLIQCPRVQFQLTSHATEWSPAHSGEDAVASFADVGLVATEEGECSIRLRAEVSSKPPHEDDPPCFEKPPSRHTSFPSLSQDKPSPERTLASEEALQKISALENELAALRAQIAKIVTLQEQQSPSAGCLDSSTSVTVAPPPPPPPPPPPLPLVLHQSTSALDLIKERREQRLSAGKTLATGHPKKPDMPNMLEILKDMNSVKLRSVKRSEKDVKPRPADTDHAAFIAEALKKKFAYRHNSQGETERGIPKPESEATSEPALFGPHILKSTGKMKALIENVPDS
MYO19-919-970-F948A (Q96H55, form named): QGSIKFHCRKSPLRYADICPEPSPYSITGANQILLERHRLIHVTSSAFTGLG

Tests used:
[1] = molecular target: Mtfr2 (mouse) (UniProt Q8VED8); test: two-hybrid; LexA-based yeast two-hybrid growth assay in EGY48; MIRO1 construct as prey (pJG4-5), bait in pEG202; streaked on SC-Leu+Gal, 30 °C
[2] = molecular target: Mtfr1 (mouse) (UniProt Q99MB2); test: as above
[3] = molecular target: T1, Trak1-577-620-D599R (mouse) (UniProt Q6PD31); test: two-hybrid; fluorescence yeast two-hybrid (f-Y2H), LexA-based, EGY48; MIRO1 prey (pJG4-5), bait in pEG202; galactose induction, permeabilised cells in buffer Z with fluorescein di-beta-D-galactopyranoside; well fluorescence minus empty vector
T1 sequence: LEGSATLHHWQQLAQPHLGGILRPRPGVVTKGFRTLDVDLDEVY

[4] = molecular target: T2, Trak1-577-620 (mouse) (UniProt Q6PD31); test: as above
T2 sequence: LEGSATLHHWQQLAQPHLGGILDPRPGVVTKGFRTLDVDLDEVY

[5] = molecular target: MYO19-919-970-F948A (human) (UniProt Q96H55); test: as above
[6] = molecular target: T3, Trak1-577-620-L594A (mouse) (UniProt Q6PD31); test: as above
T3 sequence: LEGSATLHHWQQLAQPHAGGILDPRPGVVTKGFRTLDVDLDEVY

binding [1]: binds | binding [2]: binds | binding [3]: binds | binding [4]: binds | binding [5]: no binding | binding [6]: no binding
B1: MIRO1-1-594 (domain or fragment, UniProt Q8IXI2 1-594)
chain: MKKDVRILLVGEPRVGKTSLIMSLVSEEFPEEVPPRAEEITIPADVTPERVPTHIVDYSEAEQSDEQLHQEISQANVICIVYAVNNKHSIDKVTSRWIPLINERTDKDSRLPLILVGNKSDLVEYSSMETILPIMNQYTEIETCVECSAKNLKNISELFYYAQKAVLHPTGPLYCPEEKEMKPACIKALTRIFKISDQDNDGTLNDAELNFFQRICFNTPLAPQALEDVKNVVRKHISDGVADSGLTLKGFLFLHTLFIQRGRHETTWTVLRRFGYDDDLDLTPEYLFPLLKIPPDCTTELNHHAYLFLQSTFDKHDLDRDCALSPDELKDLFKVFPYIPWGPDVNNTVCTNERGWITYQGFLSQWTLTTYLDVQRCLEYLGYLGYSILTEQESQASAVTVTRDKKIDLQKKQTQRNVFRCNVIGVKNCGKSGVLQALLGRNLMRQKKIREDHKSYYAINTVYVYGQEKYLLLHDISESEFLTEAEIICDVVCLVYDVSNPKSFEYCARIFKQHFMDSRIPCLIVAAKSDLHEVKQEYSISPTDFCRKHKMPPPQAFTCNTADAPSKDIFVKLTTMAMYPHVTQADLKSSTFWL
